In the antibiotic and cytotoxicity screens of Wong et al. (2023):
The other results are listed elsewhere or left out.

These compounds were tested on S. aureus RN4220 (assay: growth inhibition call (relative growth <= 0.2)). Conditions: 50 µM.

Growth inhibition call, inactive:
C[C@@H]1CN([C@H](C)CO)C(=O)c2cc(NC(=O)Nc3ccc(C(F)(F)F)cc3)ccc2O[C@@H](C)CCCCO[C@H]1CN(C)S(=O)(=O)c1cccs1, COc1ccc(S(=O)(=O)N(C)C[C@H]2Oc3cc(C#CC4CC4)ccc3S(=O)(=O)N([C@@H](C)CO)C[C@H]2C)cc1, C[C@H](CO)N1C[C@H](C)[C@@H](CN(C)C(=O)Cc2ccncc2)Oc2cc(C#CC3(O)CCCC3)ccc2S1(=O)=O, C[C@H]1CN([C@@H](C)CO)C(=O)c2cc(NC(=O)CCC(F)(F)F)ccc2O[C@H]1CN(C)S(C)(=O)=O, Cc1noc(C)c1S(=O)(=O)Nc1ccc2c(c1)C(=O)N([C@@H](C)CO)C[C@H](C)[C@@H](CN(C)S(=O)(=O)c1cn(C)cn1)OCCCC[C@H](C)O2, C=C[C@@H](COC(=O)OC(C)(C)C)N(Cc1ccc(OC)cc1)S(=O)(=O)c1ccc(Br)cc1, COCCNC(=O)C[C@@H]1CC[C@H]2[C@H](COc3ccc(NC(=O)Nc4cccc(F)c4)cc3C(=O)N2C)O1, N#C/C(=C\c1cccs1)c1csc2ccc(Cl)cc12, C[N+](C)(C)CCCCCC[N+](C)(C)C.[Br-].[Br-], COC(=O)c1c2oc(c1C(=O)OC)C(=O)N(C)Cc1cn(nn1)C[C@@H](C)NC(=O)N[C@H](COC(=O)NCCCCCC(=O)NO)CC2, C[C@H](CO)N1C[C@H](C)[C@@H](CN(C)S(C)(=O)=O)Oc2cc(C#CCN(C)C)ccc2S1(=O)=O, CC(C)C#Cc1ccc2c(c1)O[C@H](CN(C)C(=O)Cc1ccccn1)[C@@H](C)CN([C@@H](C)CO)S2(=O)=O, CCS(=O)(=O)Nc1ccc2c(c1)C(=O)N(C)[C@H]1CC[C@H](CC(=O)NCc3ccccc3F)O[C@@H]1CO2, N#Cc1cc(F)cc(Oc2ccc(S(=O)(=O)C(F)F)c3c2CC(F)(F)[C@@H]3O)c1.N#Cc1cc(F)cc(Oc2ccc(S(=O)(=O)C(F)F)c3c2CC(F)(F)[C@H]3O)c1, C[C@H](CO)N1C[C@H](C)[C@@H](CN(C)C(=O)Nc2ccc3c(c2)OCO3)Oc2ncc(-c3cccnc3)cc2C1=O, C[C@@H]1CN([C@H](C)CO)C(=O)CCCn2cc(nn2)CO[C@@H]1CN(C)S(=O)(=O)c1ccccc1C#N, C[C@@H]1CN([C@H](C)CO)C(=O)c2cc(NC(=O)Cc3ccccc3)ccc2O[C@@H](C)CCCCO[C@@H]1CN(C)S(=O)(=O)c1cccs1, O=C(C[C@@H]1C[C@H]2c3cc(NC(=O)C4CCOCC4)ccc3O[C@H]2[C@@H](CO)O1)NCc1ccc2c(c1)OCO2, C[C@H](CO)N1C[C@H](C)[C@@H](CN(C)Cc2ccc(-c3ccccc3)cc2)Oc2ccc(NS(=O)(=O)c3ccccc3)cc2C1=O, COc1ccc(CN(C)C[C@@H]2OCCCC[C@@H](C)Oc3ccc(NC(=O)NC4CCCCC4)cc3C(=O)N([C@@H](C)CO)C[C@@H]2C)cc1, Cc1ccccc1S(=O)(=O)N1C[C@@H](O)COC[C@@H]2O[C@H](CC(=O)NCCc3ccccc3)CC[C@H]21, COc1ccc(NC(=O)Nc2ccc3c(c2)C(=O)N([C@@H](C)CO)C[C@@H](C)[C@H](CN(C)S(=O)(=O)c2ccc(F)cc2)OCCCC[C@@H](C)O3)cc1, Cc1noc(C)c1S(=O)(=O)Nc1ccc2c(c1)C(=O)N([C@H](C)CO)C[C@@H](C)[C@@H](CN(C)Cc1ccc(C(F)(F)F)cc1)OCCCC[C@H](C)O2, CN[C@@H](C)C(=O)N[C@H]1CN(C(=O)CC(C)C)CC[C@H]2CC[C@@H](C(=O)NC(c3ccccc3)c3ccccc3)N2C1=O, Cc1noc(C)c1NC(=O)N(C)C[C@@H]1OCCCC[C@@H](C)Oc2ccc(NC(=O)c3ccccc3)cc2C(=O)N([C@H](C)CO)C[C@H]1C, Cc1cc([C@@H](O)CCCN)ccc1F, COc1ccc(S(=O)(=O)Nc2cccc3c2O[C@@H](CN(C)S(=O)(=O)c2ccc(C)cc2)[C@H](C)CN([C@H](C)CO)C3=O)cc1
